# “And” between values parts separate entries of the source, which are not always exact repeats. Identical values can stand only once. Out of some 94,000 compounds screened, about 6,200 (6.6%) were called active. This list was built around the results that the source calls inconclusive (neither active nor inactive); the mix of calls is not that of the screen. The call rests on the fitted dose curve; in most records, active means well fitted inhibition curve with a large enough effect; inconclusive means small, poorly fitted or top-dose-only effect; inactive means flat fitted curve, though single readings scatter. Potencies beside an inconclusive call are fits to weak or partial responses and may not hold up.
# Experiment: Cytotoxic Profiling in HEK 293 Cell Line of Diverse Libraries Using Quantitative High-Throughput Screening; further: nearly all actives have a fitted effect of over 60% in size
# Conditions: HEK 293 viability, ATP luminescence (CellTiter-Glo), 48-72 h; activity change, negative = cytotoxicity: at 115 µM (top of the series) unless noted; series mostly up to 115 µM
# Procedure, shortened: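 CellTiter-Glo luminescence (cellular ATP) was read after 48 or 72 hr of compound exposure at 37 degree Celsius. Cells were HEK 293 plated at 250 cells/well.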
# On the % scale 0 is the no-effect control and ±100 the full control effect; potency means the concentration at half of the fitted maximal effect; tags describe the fitted curve by direction and shape.
SMILES,Potency,"activity change, negative = cytotoxicity",outcome
COc1ccccc1CN1C[C@@H](F)[C@@H](OCc2nc3ccccc3o2)C1,"inconclusive: 100 µM [inhibitor, partial curve]",,
O=C1CC(c2ccccc2)N(Cc2ccncc2)CCCN(C(=O)CC2CCCCC2)CCN1 (centres undefined),"inconclusive: 50.1 µM [inhibitor, partial curve, poor fit]",,
CNC(=O)c1cc(C2CC2)nc2onc(C3CCCN3C(=O)c3ccc(F)cc3)c12 (centres undefined),inactive,,
CC1=C[C@@H](CNC(=O)CN(C)C)[C@H](C(C)C)C[C@H]1Cc1nc2ccc(C)cc2[nH]1,"inconclusive: 20 µM [inhibitor, partial curve, poor fit]",,
Cc1noc(C)c1-c1cc2c(cc(C)n2CCN(C)C)c(-c2ccnn2C)n1,"inconclusive: 56.2 µM [inhibitor, full curve, poor fit]",,
Cc1noc(C)c1-c1cc2c(cc(C)n2CCN(C)C)c(-c2cccnc2)n1,active: 70.8 µM,,
O=C(Cc1ccc(F)cc1)NC1CCN(c2ccc3nnc(-c4ccccc4)n3n2)C1 (centres undefined),"inconclusive: 50.1 µM [inhibitor, partial curve, poor fit]",,
COc1cccc(S(=O)(=O)N2CCC(Cc3nncn3C(C)C)C2)c1 (centres undefined),,inactive: 3.43%,
COc1cccc(C(=O)NC2CCN(Cc3cccc(-c4cccs4)c3)CC2)c1,"inconclusive: 39.8 µM [inhibitor, single point] and inconclusive: 89.1 µM [inhibitor, partial curve, poor fit]",,
COc1ccc(CNC(=O)CN2C(=O)C(c3ccccc3)=NC23CCCC3)cc1OC,"inconclusive: 89.1 µM [inhibitor, single point]",,
O=C(CC1=C2CCCCC2N(Cc2ccc(F)cc2)C1=O)NCCc1c[nH]c2ccccc12 (centres undefined),"inconclusive: 50.1 µM [inhibitor, partial curve, poor fit]",,
COc1ccc(-c2cc(N3CCC(NC(=O)c4ccc(OC)cc4C)CC3)n[nH]2)cc1,"inconclusive: 50.1 µM [inhibitor, partial curve, poor fit]",,
Cc1cc(C)cc(C(=O)NCCn2ccn3nc(-c4ccc(C)cc4C)cc3c2=O)c1,"inconclusive: 50.1 µM [inhibitor, partial curve, poor fit]",,
COc1nccc(N2CC[C@@](O)(C3CCOCC3)[C@H](C)C2)c1C#N,,inactive: -2.28%,
C[S+](=O)([O-])c1cccc(-c2nccc3c(=O)cc(N4CCOCC4)oc23)c1,"inconclusive: 39.8 µM [inhibitor, partial curve, poor fit]",,
COCc1ccc2c(c1)c(OC(C)(C)C(=O)Nc1cccnc1)nn2Cc1ccccc1,"inconclusive: 100 µM [inhibitor, partial curve, poor fit]",,
CN(C)C(=O)CCc1ccc2c(c1)CN(Cc1cn[nH]c1-c1ccc(F)cc1)CCO2,"inconclusive: 50.1 µM [inhibitor, partial curve, poor fit]",,
O=C(CCC1CCCC1)N1CC(c2noc(COc3ccccc3)n2)C1,"inconclusive: 79.4 µM [inhibitor, partial curve, poor fit]",,
Cc1ccc(CCNC(=O)c2cc3c(N4CCCC4)nc(C)cn3n2)cc1,"inconclusive: 89.1 µM [inhibitor, single point]",,
O=c1[nH]c(N2CCOCC2)nc2c1CCN(Cc1ccc(F)cc1Cl)CC2,,inactive: -16.3%,
CCC(=O)N1CCC(c2noc(-c3ccccc3)n2)C1 (centres undefined),,inactive: -5.41%,
CCc1ccc(CN2CCN(Cc3ccc(F)c(F)c3)C(CCO)C2)o1 (centres undefined),"inconclusive: 35.5 µM [inhibitor, partial curve, poor fit]",,

SMILES,Potency,"activity change, negative = cytotoxicity",outcome
CNC(=O)c1cc(-c2ccccc2F)cc2c1OCCN2Cc1cccnc1,active: 89.1 µM,,
C#CCNC(=O)C[C@@H]1C[C@@H](C(C)C)[C@H](CNC(=O)NC2CCCCC2)C=C1C,"inconclusive: 126 µM [inhibitor, single point]",,
COc1ccccc1-c1ccc(C(=O)N2CCC(NC(=O)C3CC3)CC2)cc1,"inconclusive: 100 µM [inhibitor, single point]",,
COCCNC(=O)[C@@H]1CCC[C@@H](NCc2nccs2)CN(C)C(=O)C1,,inactive: -21.6% [at 172 µM],
COCc1ccc(C(=O)NCc2cc(C)cc3c(C)c(C)[nH]c23)o1,"inconclusive: 70.8 µM [inhibitor, partial curve, poor fit]",,
O=C1CC2(CCN(C(=O)C3CCCN3C(=O)Cc3ccc(F)cc3)CC2)Oc2ccccc2N1 (centres undefined),,inactive: -22.3%,
O=C(CC(c1ccccc1)c1cn(Cc2ccccc2)c2ccc([N+](=O)[O-])cc12)N1CCOCC1 (centres undefined),"inconclusive: 31.6 µM [inhibitor, full curve]",,
O=C(NCC(F)(F)F)c1cn2cc(-c3ccc(C(F)(F)F)cc3)sc2n1,"inconclusive: 39.8 µM [inhibitor, partial curve]",,
CCCCCC(=O)N1CCC(O)(c2csc(CN3CCc4ccccc4C3)n2)CC1,"inconclusive: 44.7 µM [inhibitor, partial curve, poor fit]",,
Cc1nnc(NC(=O)C2c3ccccc3C(=O)N(Cc3ccccc3)C23CCCC3)s1 (centres undefined),"inconclusive: 79.4 µM [inhibitor, single point]",,
CCC(=O)NCCn1c(C)nc2cc(S(=O)(=O)N3CCOCC3)ccc21,,inactive: -19.2%,
COc1ccc(Nc2ccnc(N3CCC(N[S+](C)(=O)[O-])CC3)n2)cc1,"inconclusive: 79.4 µM [inhibitor, partial curve, poor fit]",,
CCN(CC)Cc1cnc2c(C(=O)N[C@H](C(N)=O)C(C)C)cnn2c1,,inactive: -1.47%,
COc1ccc(CCNC(=O)Cn2nc3n(c2=O)CCCC3)cc1OC,,inactive: 1.83%,
COc1cccc(CN2Cc3cc(NC(=O)c4cccc(OC)c4)ccc3OCC2=O)c1,active: 25.1 µM,,
COCCN1CCN(C(=O)CC(c2ccccc2)c2ccc(Cl)cc2)CC1 (centres undefined),"inconclusive: 35.5 µM [inhibitor, partial curve, poor fit]",,
CC(C)c1ccc(N2CC(C(=O)N(C)CCc3cnn(C)c3)CC2=O)cc1 (centres undefined),,inactive: -20.7%,
CC(C)c1nccn1Cc1cc(C(=O)NCc2cc(C(C)(C)C)n[nH]2)n[nH]1,,inactive: -1.02%,
Cn1ncc2c(C(=O)NC3CCCCCC3)cc(-c3ccccc3F)nc21,,inactive: -29.6%,
Cc1cccc(S(=O)(=O)N2CCCC(Cn3c(C)nc4cccnc43)C2)c1 (centres undefined),"inconclusive: 39.8 µM [inhibitor, partial curve, poor fit]",,
Cc1cccc(-n2nc(C)c(CCC(=O)N(C)C(C)C)c2Oc2ccc(F)cc2F)c1,"inconclusive: 44.7 µM [inhibitor, partial curve, poor fit]",,
Cc1noc(-c2ccn3c(CNC(=O)c4nccc5ccccc45)nnc3c2)n1,,inactive: -8.73%,

SMILES,Potency,"activity change, negative = cytotoxicity",outcome
O=C(NC1CCN(c2cc(-c3cccs3)[nH]n2)C1)c1ccc(Br)o1 (centres undefined),"inconclusive: 50.1 µM [inhibitor, partial curve, poor fit]",,
CSc1ccc(-c2cccc(C(=O)NCCN[S+](=O)([O-])c3cccs3)c2)cc1,"inconclusive: 17.8 µM [inhibitor, full curve, poor fit]",,
CCN1CCCC1CNC(=O)CCc1ccc2c(c1)CN(C(=O)NC(C)C)CCO2 (centres undefined),,inactive: -6.36%,
O=C(NCc1ccc(F)cc1)c1nc2sccn2c1-c1cccc(C(F)(F)F)c1,active: 63.1 µM,,
Cc1ccc(C)c(C(=O)N2CCCC(n3cc(-c4nc(C(C)C)no4)nn3)C2)c1 (centres undefined),"inconclusive: 79.4 µM [inhibitor, single point]",,
COc1ccc(C(=O)N2CCC(c3n[nH]c(=O)n3-c3ccccc3)CC2)cc1F,,inactive: 11.7%,
Cc1ccc(NC(=O)N2CCC(N3CC4CC(C3)[C@H]3CCCC(=O)N3C4)CC2)cc1F (some centres undefined),,inactive: -3.93%,
CCOCCNC(=O)C1CCCN(c2nccc(Nc3ccccc3F)n2)C1 (centres undefined),"inconclusive: 79.4 µM [inhibitor, single point]",,
Cc1noc(-c2ccco2)c1C(=O)NCCOc1ccccc1,"inconclusive: 79.4 µM [inhibitor, partial curve]",,
CC(=O)N1Cc2ccccc2CC2(CCN(CCc3ccccc3)C2)C1 (centres undefined),"inconclusive: 44.7 µM [inhibitor, full curve, poor fit]",,
Cc1cnc(C2CCN(Cc3ccc(F)cc3F)C2)n1Cc1ccccc1 (centres undefined),"inconclusive: 50.1 µM [inhibitor, partial curve, poor fit]",,
COc1ccc(C(=O)N2C[C@@H](CO)[C@@H]3Oc4ccc(Cl)cc4[C@@H]32)cc1,"inconclusive: 79.4 µM [inhibitor, partial curve, poor fit]",,
O=C(Cc1c(F)cccc1Cl)NCC(=O)N1CCN(c2ccccn2)CC1,,inactive: -19.9%,
O=C(c1ccc(C(F)(F)F)cc1)N1CC2CC(C1)[C@H]1CCCC(=O)N1C2 (some centres undefined),,inactive: 9.22%,
CCOc1ccccc1CN1CCC2(CCN(C(=O)Nc3ccc(Cl)cc3)CC2)Oc2ccccc21,"inconclusive: 89.1 µM [inhibitor, partial curve]",,
Cc1ccccc1-c1cc(-c2cn[nH]c2)c2cncn2c1,"inconclusive: 79.4 µM [inhibitor, partial curve, poor fit]",,
O=C(N[C@H]1C[C@H]2C(=O)NC[C@@H](CCC(=O)N3CCCC3)N2C1)c1cccs1,,,inactive [at 172 µM]
CC(C)CCNC(=O)c1cnc2c(c1)N(C(=O)Cc1ccc(C(C)C)cc1)CCC2,active: 100 µM,,
Cc1ccc2c(C(=O)NCc3ccccc3Cl)cc(NC(=O)C(C)C)cc2n1,"inconclusive: 100 µM [inhibitor, single point]",,
CN(C)c1ncnc2sc3c(c12)CCN(Cc1ccco1)C3,"inconclusive: 79.4 µM [inhibitor, single point]",,

# Reference: PubChem BioAssay AID1345083 (National Center for Advancing Translational Sciences (NCATS), 2018)
